Measured values reported in the RNAGym collection of RNA variant scans (doi:10.7554/elife.90254).
The source gives no read counts; variants with many changes may rest on few reads.

B1: LINE1-mini (parent)
chain: GGCAGAGCUCAACACAGCGUGGCAAAGUGGCUGUGGCUAGACUGCC

Variants of: B1
Assay: self-cleavage, relative activity (ratio to wild type); higher = more cleavage; in vitro, sequencing; the parent is a self-cleaving ribozyme

| Variant | self-cleavage |
| --- | --- |
| GACAGAGCUCAACACAGGGUGCCAAAUUGGCUGUGGCUAGACUGCC | 0.03 |
| GACAGAGCUUAACACAGCGUGGCAAAGUGGCUGUGGCUAGACUGCA | 0.21 |
| GACAAGGCUCAACAUAGCGUGGCAAAGUGGCUGUGGCUAGACUGGC | 0.54 |
| GACACAGCUCAACACAGCGUGGCAAAGUGGCUUUGGCUAGACUGCC | 0.31 |
| GACAGACCUCAACACAGCGUGGCAAAGUAACUGUGGCUGGACUGCC | 0.13 |
| GACACAGCUCAACACACCGUGGCAAAGUGGCUGGGUCUAGACUGCC | 0.03 |
| GACACAGCUCAACACAGCGUGGCAAAGUGGCUGUGGCUAUACUGCC | 0.02 |
| GACAGAGCUCAACACAGCUCGGUAAAGUGGCUGUGGCUAGACUGCC | 0.1 |
| GACAGAGCUUAACACAGCGUGGCAAAGUGGCAGUGGGUAGACUGCC | 0.08 |
| GACACAGCUCAACACAGCGUGGUAAAGUGGCUGUGGCUAGACUGCC | 0.02 |
| GACAGAACUCAACACAGGGUGGCAAAAUGGAUGUGGCUAGACUGCC | 0.1 |
| GACAUAGCUCAACACAGCGUGGCAAAGUGGCGGUGGCUAGACUGCC | 0.21 |
| GACACAGCUCAACACAGCGUGGCUAUGAGGCUGUGGCUAGACUGCC | 0.08 |
| GACAUAGCUCAACGCAGUGUGGCAAAGCGGCUGUUGUUAGACUGCU | 0.05 |
| GACAGAACUCACCAUAGCGUGGCAAAGUGGAUUUGGCUAGACUGAC | 0.14 |
| GACAGAGCUUAACACAGCAAGCCAAAGUGGCUGUAGCUAGACUGCC | 0 |
| GACAUAGAUCAACACAGCGUGGCAAACUGGCUGUGGCUAGACUGCC | 0.14 |
| GACAGAGCUCAACAUAGCGUGGAAAAGUGGCUGUGGCUACUCUGCC | 0.23 |
| GACAGAGCUCAACACAGCGUGGAAAAGUGGCUGUGGUUAGACUGUC | 0.01 |
| GACAAAGCUCAACACAGCGUGGCUAAGUGGCUGCGGCUAGACUGCC | 0.17 |
| GACAGAGCUCAACAAAGCGUGGCAAAGUGGCGGUGGCUAGACUCCC | 0.16 |
| GACAGAAUUCAACACAGCGUGGUUAAGUGGCGGUGGCCAGACUGCC | 0.55 |
| GACAGAGCUCAACAGAGCGUGGCAAUGUGGCUGUGGCUAGACUGCC | 0.01 |

| Variant | self-cleavage |
| --- | --- |
| GACAGAACUCAACACAGCGUGGCAAAGUGGCUGUGGCAAGACUGCC | 0.16 |
| GACAGACCUCAACACAGCGUGGCAAAGUGGCUGUGGAAAGACUGCC | 0.24 |
| GACAGAUGUCAACACAGCGUCGCAAAGUGGCUGUGGCUAGAGUGCC | 0.45 |
| GACAGAGCUCAAAACGGCGUGGCAAACUGGCUGGUGCUAGACUGCC | 0.02 |
| GACAGAGCUCAACACAGGGUGGCAAAGUGGCUGCAGCUAGACUGCC | 0.18 |
| GACAGAGCUCAACACAGCGUGGUAAAGUGGCUGUGGCUAGACUGCA | 0.82 |
| GACAGAGCUCAACACAGCGUGGCAAAGUGGAUGUGGCUAGACCGCC | 0.24 |
| GACAGAACUCAACACAGCGUGGCCAACAGGCUGUGGCUUGACUGCC | 0.04 |
| GACAGAGCUCAACACAGCCUGGCAAAGUGGCAGUGGCUCGACUGCC | 0.04 |
| GACAGAGCUCAACAAAGCGUGACAAAGUGGCUGUGGCUAGACUGCC | 0.11 |
| GACAGAGCUCAACACAACGUGGCAAAGUGGCUGUCGCUAGACUGCC | 0.32 |
| GACAGAGCUCAACACAGCAUGGCAAAGCGGCUGUGGCUAGACUGCC | 0.2 |
| GACAGAGCUCAACACAGUGUGGCAAAGUGGCUGAGGCUAGACUGCC | 0.03 |
| GACAGACCUCUACACAGCGUGGCAAAGUGGCGGUUGCUAGACUGCC | 0.05 |
| GACACAGCUCAAAACAGCGUGGGAAAGUGGCUGUGGCGAGACUGCC | 0.08 |
| GACAGAGCUCAACACAGCUUGACAAACUGGCUCUGCGUAGACUACC | 0.04 |
| GACAGAGCUCAACACAGCAUCGCAGGGUGGCUGUGGCUAGACUGCC | 1.04 |
| GACAGAGCUCAACACAGAGUGGCAAAGUGGCUUUGGCUAGACUGCC | 0.02 |
| GACAAAGCUCAAAUCAGCGUGGCAAAGUAGUUGUGGCUAGACUGCC | 0.6 |
| GACAGAGCUCAACACAGCGUGGCAAAGUGGCUGUGGAUAGACCGAC | 0.35 |
| GACAGAGCUCAACACAGCGUGGCAAAGUGGCUGUGGGUAUACUGCC | 0.24 |
| GACAGACUUUAACACAGCGUGGCAAAGUGGCUUUGGCUAUACUGCC | 0.08 |
| GACAGAAAUCAACACAGCGUGGCAAAGUGGCUGUGGCUUGACUGCC | 0.12 |

| Variant | self-cleavage |
| --- | --- |
| GACAGAACUCAACACAGCGUGGCAAAGUGGCUGUGGCUAUACUGCG | 0.87 |
| GACAGAGCUCAACACAGAGUGGCAAAGUGGCUGUGGCUAAACUGCC | 0.06 |
| GACAGAGCUCAACACAGUGUGGCAAACUGGCUGUGGCUAGACUGCC | 0.09 |
| GACACAGCUCAAGACAGCGAGGCAAAGUGGCUGUGGCUAGACUGCC | 0.02 |
| GACAGAGCUCAACACAGCGUGGCAAAGUGGCUGUGGGUAGACUACC | 0.3 |
| GACAGAGCUCAAAUCAGCGUGGAAAAGUGGCUGUGGCUAGACUUCC | 0.61 |
| GACAGAGCUCAACACACCGUGGCAAAGGGGCUGUGGCUAGACUGCU | 0.11 |
| GACAGAGCUCAAUGCAGCGUUGCAAAGUGGCUGUGGCUAGACGGGC | 0.13 |
| GACAGAGCUCAACAGAGAGUGGCAAAGUGGCUGUGCCUAGACCGCC | 0.01 |
| GACAGAGCUCAACACAGCAUGGCAAAGUGGCUGUGGCUACAAUGCC | 0.06 |
| GACAGAAAUCUACACAGCGUGGCAAAGUGGCUGUCGCUAGACUGCC | 0.04 |
| GACAUAGCUCAACAAAGCGUGGCAAAGUGACUGUGGCUAGACUGCC | 0.33 |
| GACAAAGCUCAAGACAGCGUGGCAAAGUGGCUAAGGCUAGACUGCC | 0.77 |
| GACAUAGCUCAACACAGCGUGGCAAAGUGGCUGUGGAGGGACUGCC | 0.02 |
| GACACAGCUCAACACAGCGUGGCAAAUUGGCUGUGGCUAGACUGCC | 0.1 |
| GACAGAGCUCAACACAGCGUGGGAAAGGGGCUGUGGCUAGACUGCA | 0.63 |
| GACAAGGCUCAACACAGCGUGGCAAAGUGGCUGUGUCUCGCCUGGC | 0.11 |
| GACAGAGCUCAAAACAUCGUGGCACAGUGCCUGUGGCUAGCCUGCU | 0.14 |
| GACACAGUUCAAUACAGCGUGGCAAAGCGGCAGUGGCUGGACUGCC | 0.11 |
| GACAGAUCUCAACACAGAGCGGCAAAGUUGCUGUGGCUAGAUUGCC | 0.06 |
| GACAGAGCUCAACACAGCUUGGCAAAGUGACUGUGGCUAGACUGCC | 0.25 |
| GACACAGCUCACCACAGCGUGUCAAAGAGGCUGUGGCUCGACUGCU | 0.01 |
| GACAGAGCUCAACAUAGCGUUGCAAAGUGGCUGUGGCUAGACUGCC | 0.73 |

| Variant | self-cleavage |
| --- | --- |
| GACAGAGCUCAACACAGCGUGGCAAAGUGGAUGUGGCUAGACUGGC | 0.41 |
| GACAGAGCUCAACACAUCGUGGCAAAGUGGCUGUGGCUAGAUUGCC | 0.14 |
| GACAGAGCUCAACACAUCGUGGCGAAGUGGCUGUGGCUAAACUGCC | 0.2 |
| GACAGAACUCAACACAGCGUGGCAACGGGGCUGUGGCUAGACUUCC | 0.37 |
| GACACAGCUCAACACAGCGUGGCAAAGUGGCUGUGUCUAAACGGCC | 0.04 |
| GACAGAGCUCAACACAGCGUGGGAAAGUGGCUGUGGCUGGACUGCC | 0.3 |
| GACAGAGCUCAACAGAGCGGGGCAAAGUGGCUGUGGCUAGACUGCC | 0.05 |
| GACAGAGCUCAACACAUCGUCGCAAAGUGGCUGUGGCUAGACUGCC | 0.22 |
| GACAGAGCUCAAAACAGCGUGGUAAAGUGGCUGUGGCUUGACUGUC | 0.58 |
| GACAUAGCUCAAGACAGCGUGGCAAAGUGGCUGUGGCUCGACUGCC | 0.22 |
| GACAGACCUCAACACAGCGUGGCAAAGUGGCUUUGGCAAGACUGCC | 0.14 |
| GACAGAGCUCAAAAGAGCGUGGCAAAGUGGCUGUGGCUACACUGCC | 0.01 |
| GACAUAACUCAACACAGCGUGACAAAGUGGCUGUGGCUAGACUGCC | 1.08 |
| GACAGAGCUCAAAACAGCGUGACAAAGUGGCUGUGGCUAGACUGCU | 0.17 |
| GACAGAUCUCAACACAGCGUGACAAAGGGGCUGUGGCUAAACUGCC | 0.18 |
| GACAGAACUCAACCCAGCGUUGCAAAGUGGCUGUUGCUAGACUGCU | 0.07 |
| GACAGAGCUCAACAACGCAUGGCAAAGUGGCUGUGGCUAAACUGUC | 0.07 |
| GACAGAACUCCACACAGCGUGGCAAAGUGUCUGUGGCUAGACUGCC | 0.03 |
| GACAGAGCUCAAAACAGCGUGGCGAAGUGACUGUGGCAAGACUGCC | 0.11 |
| GACAGACCUCAACACAGCGUGGCAAAGUGACUGUGGCUAGACUGCC | 0.65 |
| GACACAGCUCGACACAGCGUCGCAAAGUGGCUGUGGCUAGACUGCC | 0.03 |
| GACACAACUUAACACAGCGUGGUAAAGUGGCUGUGGCUAGAGUGCC | 0.11 |
| GACAUAGCUCAACACAGCGUGGCAAAGUGGCUGUGGCUAGAGUGCC | 0.15 |

| Variant | self-cleavage |
| --- | --- |
| GACAGAGCUCAACACAGCUUGGCAAAGUGGCUGUGGCGAGUCUGCC | 0.03 |
| GACAGAGCUCAACACAGAGUGGCAAAGUUGCUGUGGCUCGACUGCC | 0.15 |
| GACAGAGCUCAACACAACGUGGCAACGUGGCUGUGGCUAGACUGCC | 0.57 |
| GACAGAGCUCAACAUGGCGUGGCAAAGUGGCUGUGGCUAGACUGCC | 0.55 |
| GACAGAGCUCAACACAGCGUGGAAAAGUGGCUGUCGCUAGACUGCC | 0.05 |
| GACAGAACACAACACAGCGUGGCAAAGUGGCUGUGGCUCGACUGUC | 0.49 |
| GACAGAGCUCAACACAGCGUGGAAAAGUGGCUGUGGCUAGUAUGCC | 0.19 |
| GACAGAGCUCAAGACAGCGUGGCAACGUGGCUGUGGCUAGACUACC | 0.16 |
| GACAGAUCUUAACACAGCGUGGCAAAGUGGCUGUGGCUGGACUGCC | 0.01 |
| GACAGAUCUCAACCCAGCAUGGCAAAGUGGCUGUGGCUAGACUGCC | 0.27 |
| GACAGAUCUCAACUCAGCUUGUCAAAGUGGCUGUGGCUAGACUGCC | 0.41 |
| GACAUAGUUCAACACAGCGUGGCAAAGUGGCUGUGUCUAGACUGCC | 0.19 |
| GACAGAUCUCAACACAGCGUGGCAAACUGGCUGUGGCUAGACUGCC | 0.18 |
| GACAGACCUCCACACAGCGUGGAAAAGUGGCUGUUGCUAGACUGCC | 0.02 |
| GACAGAGCUCAACAUAGCGUAGCAAAGUGACUGUGGUUCGAAUGCC | 0.06 |
| GACAUAGCUCAACACAGCGUGGCAAAGUGGCUGUGGGUAGACUGCC | 0.1 |
| GACAGAGCUCAACAUAGCGUGGCAAAGUGGCUGUGGCUAGUCUGCC | 0.07 |
| GACAGAGCUCAACACAGCGUGGUAAAGUGGCUGUGGCUAGAUUGCC | 0.57 |
| GACAGACCUCAACACAGCGUGGAAAAGUGGAUGUGGCUAGAAUGCC | 0.03 |
| GACAGAGCUCAACAGAGCGUGGGAAAGUGGCUGUGGCUAGACUGCC | 0.08 |
